Values marked as one replicate rest on one cluster of the flow cell; about a third of the high ones do not repeat.
tested on: ATP; assay: switch fluorescence ratio, 500 uM ATP over buffer (Cy3 cluster intensity, sum of 5 cycles each) (fold (ratio)); higher = stronger signal-on switching upon ATP binding; sequences stand for … in TCGTCGGCAGCGTCAGATGTGTATAAGAGACAGTTTTTTTTTTTTTTTTTTTTTTTTT…TC; settings: aptamer strand: ATP DNA aptamer (quencher-CACCTGGGGGAGTATTGCGGAGGAAGG + anchor), 100 nM annealed; ATP concentration: 500 uM; one replicate
Outline: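 Five buffer/ATP imaging cycles were run on Cy3-labelled switching-strand clusters on a modified Illumina MiSeq flow-cell, with NaOH stripping and re-annealing between cycles. In each cycle, clusters annealed to 100 nM quencher-labelled ATP aptamer were imaged in selection buffer, then after 15 min with 500 uM ATP at 22 °C. Per cluster, the fluorescence ratio is summed target-cycle over summed buffer-cycle Cy3 intensity, averaged per switch-domain sequence. Only clusters within 100-1000 RFU were kept.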
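Note: ATP exposure 15 min at 22 °C before imaging.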

Sequence	switch fluorescence ratio
GGGGATCTGC	1.05
GGGGATGCTT	0.986
GGGGCACGAA	0.971
GGGGCAGTT	0.977
GGGGCATTGC	1.07
GGGGCCCAAT	1.08
GGGGCGAGGA	0.931
GGGGCGTTG	1.01
GGGGCGTTGT	1.03
GGGGCTAACC	1.05
GGGGCTAACT	0.97
GGGGGCGAGA	1
GGGGGCTAG	1.07
GGGGGGGT	1.04
GGGGGTTCGC	0.971
GGGGTAGAT	1
GGGGTATGCA	0.95
GGGGTATTTA	0.933
GGGGTCGCTC	0.985
GGGGTGCATT	1.01
GGGGTGCCGC	1.03
GGGGTGTGGA	1.01
GGGGTTAGAC	0.983
GGGGTTCTAA	1
GGGGTTGG	1.01

Sequence	switch fluorescence ratio
GGGTAAAAAT	0.926
GGGTAAGCGC	1.04
GGGTAATGCT	0.946
GGGTACACCT	1.08
GGGTACTAAC	1.05
GGGTAGCCCA	0.995
GGGTAGGCCA	0.979
GGGTAGGCG	0.97
GGGTATAGAC	0.971
GGGTCCATAG	0.981
GGGTCCGCCA	1.71
GGGTCCTTC	1.03
GGGTCGCAGG	1.07
GGGTCGGTCG	0.974
GGGTCGTTCG	0.999
GGGTCGTTTG	0.999
GGGTCTACCT	1.03
GGGTCTCCGG	1.03
GGGTCTGTGA	0.962
GGGTGACCCG	0.959
GGGTGATAAG	1.01
GGGTGATACA	0.965
GGGTGCAGTT	0.97
GGGTGCTCGA	1.01
GGGTGGAGAT	1

Sequence	switch fluorescence ratio
GGGTGGATAT	1.02
GGGTGGCCGG	1.03
GGGTGGCGCG	0.977
GGGTGTAGAC	1.07
GGGTGTATGT	0.968
GGGTGTCGC	0.994
GGGTTCAGGA	0.974
GGGTTCCTTA	1
GGGTTTAGGA	1.04
GGGTTTGAGT	0.965
GGTAAAAAGC	1.04
GGTAACGGAT	0.97
GGTAAGGGCA	1.03
GGTAAGGTGG	0.988
GGTAATAATT	1
GGTAATTGGC	1.03
GGTACACGGT	1.01
GGTACCACAG	1.01
GGTACCCAGT	1.06
GGTACCTAGA	1.03
GGTACGATTG	1.02
GGTACGGACA	1.35
GGTACTGGGT	1
GGTACTTCTT	1.01
GGTAGAAATG	1.01

Sequence	switch fluorescence ratio
GGTAGATCTA	1.03
GGTAGCGGG	1.03
GGTAGCGTA	0.988
GGTAGCTTAT	0.937
GGTAGGCACT	1.02
GGTAGGGGCT	0.959
GGTAGTAACG	1.02
GGTAGTAGCG	1.06
GGTAGTTGCG	0.959
GGTATACTGC	0.973
GGTATCAGAA	1.01
GGTATCGATA	1.02
GGTATCGGTG	1.02
GGTATGAATT	1.03
GGTATGTGTA	0.961
GGTATGTTGT	1.05
GGTATTGGAT	1.02
GGTATTTCA	1.02
GGTCAAACTA	0.998
GGTCAAGTCG	0.955
GGTCACTCAC	1.2
GGTCAGTATT	0.974
GGTCATTGCG	1.01
GGTCCCGCA	0.995
GGTCCCTTTA	1.01
